The structures appear in SMILES notation. Where two headings read alike, the source gives them in different places.

For the test, the system named is N NTD monomer of SARS-CoV-2. The settings on record: NTD (48 µM) monomer, [compound] = 75 µM; for ΔTm: versus N NTD alone; for Tm, apparent melting temperature: N NTD alone 51 ± 1.

In general, ΔTm refers to the change in melting temperature against a reference sample. With `CC(=O)Nc1ccc(O)cc1` [Acetaminophen (paracetamol), Acetaminophen], the “Tm, shoulder in the derivative curve” value came out at 54 °C; the thermal shift (ΔTm) is −5 °C; the “Tm, apparent melting temperature” value was 46 ± 2 °C. In addition, the ΔTm result (listed as paracetamol) is given as “did not stabilize N NTD”.

As to `COc1ccc2cc(C(CCC(=O)O)C(=O)O)ccc2c1` (centres unmarked) [Naproxen A], the “Tm, shoulder in the derivative curve” value was 58 °C; the ΔTm was −4 °C; the “Tm, apparent melting temperature” value turned out to be 47 ± 2 °C. In addition, the ΔTm result (listed as naproxen A) was “did not stabilize N NTD”.
